The text below walks through data of the supplement of paper PMC11417369.

± gives the standard deviation of the averaged measurements. The list shows a part of the results.

This test concerns PfAP2-I AP2 domain 3 (GST-tagged). Kind of test: gcPBM binding intensity (ln(normalized median fluorescence intensity)); higher = stronger DNA binding. The method in brief: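 The binding buffer was 1× PBS containing 1% milk, 0.2 mg/ml BSA, 0.5% salmon testes DNA and 0.03% Triton X-100. In it, GST-tagged P. falciparum DNA-binding domains expressed in E. coli were applied for 1 h to an Agilent 4 × 180k array of primer-extended double-stranded 36-bp intergenic genomic probes plus negative controls. Binding intensity, read with Alexa488 anti-GST antibody and a 488 nm scan, is the highest Masliner-normalised natural-log median intensity across replicate spots of either probe orientation.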
Regarding “ATATATATATATATTTGTACATAATATATATATGCA [XGTACX_site1795]”, the “gcPBM binding intensity (ln)” value stood at 9.28 ± 0.48. The same measure for “AAACAATTTAGACATACACACAAAAATAATATTATA [CACACA_site384]”: 7.68 ± 0.61; for “ATATATATATATATATGTACATATTGTATTATTCAC [XGTACX_site6511]”: 9.41 ± 0.49; for “ATTAAAAAAAAGCTCATCGAAATGTCTTATATAAAT [CACACA_negctrl_site912]”: 7.55 ± 0.65. On to “CACGAAAATTTGTAGAGTACATATATAATTAATATA [XGTACX_site3808]”, for which the “gcPBM binding intensity (ln)” value amounted to 7.71 ± 0.52.

For the sequence “CAATTAAACAATTAAACATGCAAAATGATATAATAA [TGCATGCA_site240]”, the “gcPBM binding intensity (ln)” value is 7.61 ± 0.68. Then “AATAATCATGATCATAGTACGTATGAATACAAAAAA [XGTACX_site265]”, with 7.87 ± 0.67; and “TATCTACTTAAATAAAATAAAAATAATAAATAAAAA [TGCATGCA_negctrl_site312]”, with 7.5 ± 0.59.

Turning to “ATAAAACAAAGACACACACACATACACAAAAAAAAA [CACACA_site7752]”, the “gcPBM binding intensity (ln)” value worked out at 8.18 ± 0.45. The same measure for “TTTTATTTATTCCTACTTTTTTATTTATTTATTTAA [XGTACX_negctrl_site415]”: 7.74 ± 0.68. The same measure for “ACATTATGTCATAAATGTACACATACATATACATAC [XGTACX_site8998]”: 7.81 ± 0.45; for “CGTATGTATATATATATACACACTTCTGTGATACGA [CACACA_site1949]”: 7.78 ± 0.49. On to “ATGTATAATATTTTCACACACAAGAAAAAAGAAAAG [CACACA_site3591]”, for which the “gcPBM binding intensity (ln)” value is 7.85 ± 0.33. Consider “AAATGAATTTAACAATGTACACATATATTATAAATA [XGTACX_site1449]”, for which the “gcPBM binding intensity (ln)” value was determined as 7.61 ± 0.52. In the case of “TACATAATAATAAGGCGTACATAAAAATTAAAAATT [XGTACX_site8769]”, the “gcPBM binding intensity (ln)” value was found to be 8.18 ± 0.32.

As to “AAAACGATTTTTTGCACACACATAATAAGCAGAACA [CACACA_site3871]”, the “gcPBM binding intensity (ln)” value worked out at 9.38 ± 0.085. On to “ATATATATATGTATATGTACTCATTCTTCTGTGTTT [XGTACX_site5014]”, for which the “gcPBM binding intensity (ln)” value is 9.1. With “TAAGTCAAAACTTTTTTTTCTAAATTTCCATAATTA [GTGCAC_negctrl_site29]”, the “gcPBM binding intensity (ln)” value amounted to 7.16 ± 0.58. For the sequence “ATATACATTCTATATACATGCATACTTCATTTTGTG [TGCATGCA_site966]”, the “gcPBM binding intensity (ln)” value came to 8.03 ± 0.85. The same measure for “ATTATACCGTATTTTGCATGTAGTATTTTCATTTTA [TGCATGCA_site1021]”: 8.12 ± 0.86. Take “ATTAATTATGTATTTCAACAAAGAAGTGTTATATAT [GTGCAC_negctrl_site215]”: the “gcPBM binding intensity (ln)” value amounted to 7.91 ± 0.54. Turning to “TCTTTATCCTTTCTCTTTTTATTAATTATAATATTC [TGCATGCA_negctrl_site584]”, the “gcPBM binding intensity (ln)” value was determined as 8.15 ± 0.67.

For “ATTATTTGTAATATAACACACACAAAAAAAGACTCG [CACACA_site8487]”, the “gcPBM binding intensity (ln)” value worked out at 7.83 ± 0.43. For “TATCATTTATATATGTGTACTTATTTATTTATTTAT [XGTACX_site7961]”, the “gcPBM binding intensity (ln)” value was determined as 7.96 ± 0.28. Consider “ATATATACCTAAGACACACACATATATATATATATA [CACACA_site764]”, for which the “gcPBM binding intensity (ln)” value came to 9.36 ± 0.35. Take “AAATGTACAGGACGCACACACATATATATATATATA [CACACA_site3674]”: the “gcPBM binding intensity (ln)” value stood at 9.55 ± 0.37.

For the sequence “AAGGAAAATATTAACTGTACATATAAAATATATATA [XGTACX_site5310]”, the “gcPBM binding intensity (ln)” value was determined as 7.91 ± 0.71. “AATGAATCCTTATATACACACATTATTATAGTATAG [CACACA_site7454]”: the “gcPBM binding intensity (ln)” value was determined as 7.79 ± 0.53. Take “ATTTATATATATTTATGTACGTATTAATTTTTTTTT [XGTACX_site3877]”: the “gcPBM binding intensity (ln)” value is 7.76 ± 0.55.

Take “AAAGAAAATTAAAAAGAACACACAAATATATATATA [CACACA_site9196]”: the “gcPBM binding intensity (ln)” value turned out to be 9.06 ± 0.17. Consider “AGTATACTCAAACACACACACACAAAAAAAAAAAAA [CACACA_site4398]”, for which the “gcPBM binding intensity (ln)” value was found to be 8.04 ± 0.68.

Take “TAAGAAATAAATAGTACACACATAGACACCCACCGA [CACACA_site1516]”: the “gcPBM binding intensity (ln)” value came to 8.86 ± 0.15. The same measure for “ACAATATTATTATTTAACCATACACAATTATATGTC [XGTACX_negctrl_site378]”: 7.66 ± 0.62; for “GTAATATTAATATAATGTACAAAATGAAACATATAT [XGTACX_site6219]”: 7.71 ± 0.57. In the case of “CAGTTTAATTTACATAGTACATAATATTTTAATTTT [XGTACX_site1793]”, the “gcPBM binding intensity (ln)” value came to 7.66 ± 0.2. Then “CAAAAAGATAAGGTGTGTACGTATTATAATTTTAAA [XGTACX_site531]”, with 8 ± 0.34; and TGAAATGATCTTTAGTTGCACTTAAAAATATATATA, with 8.8 ± 0.23. Then “ATTTAATTTTCCAAATGTACTTATATTTTTATGAAA [XGTACX_site6144]”, with 7.79 ± 0.28. Take “TAGATACATAAACACACACACACATACATATATACA [CACACA_site9139]”: the “gcPBM binding intensity (ln)” value worked out at 7.88 ± 0.33. Regarding “GGTATATAAAAATATTGTACTTAAAAAAATATGTAT [XGTACX_site6253]”, the “gcPBM binding intensity (ln)” value amounted to 7.83 ± 0.42.

In the case of TATTTCACTTTTTGTCTGCACTAAAATTTTATGGTA, the “gcPBM binding intensity (ln)” value amounted to 9.46 ± 0.32. In the case of “AAGTATAGTCTTACATATATATATATATATATATAT [GTGCAC_negctrl_site280]”, the “gcPBM binding intensity (ln)” value stood at 9.36 ± 0.74. Then “AAAAAAAAAAAAAACACACACATATATATAATATAT [CACACA_site3172]”, with 8.07 ± 0.11. On to “TTTTGACTAATATAATATGTTAAGAATTAATAAATA [XGTACX_negctrl_site35]”, for which the “gcPBM binding intensity (ln)” value was determined as 7.21 ± 0.39. Then “TAAAAAAGAAAATATATACACACCAAAAAAAAAAAA [CACACA_site3146]”, with 7.92 ± 0.76; and “ATTAAATCCGCACGCACACACACATATTAATAAAAA [CACACA_site3992]”, with 8.96 ± 0.13. Then “ACATGTCTTAAAAGACGTACATATAAAAGAACCCTA [XGTACX_site8940]”, with 7.95 ± 0.2. The same measure for “AATATTAAAGAATAATGTACAAAATAAAAGCAAAGA [XGTACX_site3550]”: 8.22 ± 0.3.

Consider “AAACAAAAAAATTGAAATAAAATGAAGTAAATGAAC [TGCATGCA_negctrl_site129]”, for which the “gcPBM binding intensity (ln)” value was 8.21 ± 0.67. With “TTATTTTTTAAAAGTAGTACAAATTTTTATAGAAAA [XGTACX_site7407]”, the “gcPBM binding intensity (ln)” value was found to be 7.91 ± 0.31. As to “ATTCCTTGGTTGTATAGTACTTTGGTTAAACATAAA [XGTACX_site6967]”, the “gcPBM binding intensity (ln)” value is 8.03 ± 0.6. As for “TATCTCATAGTATACACACACACACGCGCACATATA [CACACA_site6917]”, the “gcPBM binding intensity (ln)” value was determined as 8.34 ± 0.67. Consider “TGTATATATTATATTTGTACATATAAAACTATATGT [XGTACX_site4782]”, for which the “gcPBM binding intensity (ln)” value was determined as 7.67 ± 0.45. The same measure for “TTAAATATATGTAATACGCACACTTAATATTTTGAG [CACACA_site4170]”: 8.18 ± 0.35; for “AAAAAAAAAAAAAAAACATGCAATAAAGTGTGCGTA [TGCATGCA_site982]”: 8.81 ± 0.75; for “TTTTGGTGGGTTACAAGTACTCAAAATGGATTGTTA [XGTACX_site1951]”: 8.66 ± 0.17.
